Measured values reported in the supplement of paper PMC4604168 (melanoma cell lines).
Some of the results follow. Repeats are few or missing, and single values can be far off.

Tested on: COLO800
Assay: cell count relative to DMSO control; melanoma cells; higher = more viable cells
Conditions: library dose: low library concentration; 72 h
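Note: cell number obtained by counting DAPI-stained nuclei in high-throughput microscope images with image analysis software, screen run in 1,536-well plates.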

Compound	cell count [%]
Cc1cc(Nc2cc(N3CCN(C)CC3)nc(Sc3ccc(NC(=O)C4CC4)cc3)n2)n[nH]1 [Tozasertib] + O=c1cc(-c2cccc3c2Sc2ccccc2S3)oc(N2CCOCC2)c1 [KU55933] (first compound 0.006 µM, partner dose 1 µM)	103
N#CC[C@H](C1CCCC1)n1cc(-c2ncnc3[nH]ccc23)cn1 [ruxolitinib] + COCC[n+]1c2c(n(Cc3cnccn3)c1C)C(=O)c1ccccc1C2=O [YM155] (first compound 1 µM, partner dose 0.0004 µM)	123
CC[C@]1(O)C[C@H]2CN(CCc3c([nH]c4ccccc34)[C@@](C(=O)OC)(c3cc4c(cc3OC)N(C=O)[C@H]3[C@@](O)(C(=O)OC)[C@H](OC(C)=O)[C@]5(CC)C=CCN6CC[C@]43[C@@H]65)C2)C1 [vincristine] + NC(=O)c1ccc(N(C(N)=O)c2c(F)cccc2F)nc1-c1ccc(F)cc1F [VX702] (first compound 0.0001 µM, partner dose 0.4 µM)	91.5
CC[C@]1(O)C[C@H]2CN(CCc3c([nH]c4ccccc34)[C@@](C(=O)OC)(c3cc4c(cc3OC)N(C=O)[C@H]3[C@@](O)(C(=O)OC)[C@H](OC(C)=O)[C@]5(CC)C=CCN6CC[C@]43[C@@H]65)C2)C1 [vincristine] + CC(=O)c1c(C)c2cnc(Nc3ccc(N4CCNCC4)cn3)nc2n(C2CCCC2)c1=O [palbociclib] (first compound 0.0001 µM, partner dose 0.04 µM)	97
N#CC[C@H](C1CCCC1)n1cc(-c2ncnc3[nH]ccc23)cn1 [ruxolitinib] + CCCS(=O)(=O)Nc1ccc(F)c(C(=O)c2c[nH]c3ncc(Cl)cc23)c1F [PLX4720] (first compound 1 µM, partner dose 0.08 µM)	158
Cc1cc(Nc2cc(N3CCN(C)CC3)nc(Sc3ccc(NC(=O)C4CC4)cc3)n2)n[nH]1 [Tozasertib] + N#CC[C@H](C1CCCC1)n1cc(-c2ncnc3[nH]ccc23)cn1 [ruxolitinib] (first compound 0.006 µM, partner dose 1 µM)	90.3
Cc1cc(Nc2cc(N3CCN(C)CC3)nc(Sc3ccc(NC(=O)C4CC4)cc3)n2)n[nH]1 [Tozasertib] + NC(=O)c1ccc(N(C(N)=O)c2c(F)cccc2F)nc1-c1ccc(F)cc1F [VX702] (first compound 0.006 µM, partner dose 0.4 µM)	110
CC[C@]1(O)C[C@H]2CN(CCc3c([nH]c4ccccc34)[C@@](C(=O)OC)(c3cc4c(cc3OC)N(C=O)[C@H]3[C@@](O)(C(=O)OC)[C@H](OC(C)=O)[C@]5(CC)C=CCN6CC[C@]43[C@@H]65)C2)C1 [vincristine] + C=C(c1ccc(C(=O)O)cc1)c1cc2c(cc1C)C(C)(C)CCC2(C)C [Bexarotene] (first compound 0.0001 µM, partner dose 2 µM)	101
N#CC[C@H](C1CCCC1)n1cc(-c2ncnc3[nH]ccc23)cn1 [ruxolitinib] + Clc1ccc(Nc2nnc(Cc3ccncc3)c3ccccc23)cc1 [vatalanib] (first compound 1 µM, partner dose 2 µM)	185
N#CC[C@H](C1CCCC1)n1cc(-c2ncnc3[nH]ccc23)cn1 [ruxolitinib] + O=C(/C=C/c1cccnc1)NCCCCC1CCN(C(=O)c2ccccc2)CC1 [FK866] (first compound 1 µM, partner dose 0.01 µM)	25.5
Cc1cc(Nc2cc(N3CCN(C)CC3)nc(Sc3ccc(NC(=O)C4CC4)cc3)n2)n[nH]1 [Tozasertib] + CN(NC(=O)CC(=O)NN(C)C(=S)c1ccccc1)C(=S)c1ccccc1 [STA4783] (first compound 0.006 µM, partner dose 0.006 µM)	48.6
N#CC[C@H](C1CCCC1)n1cc(-c2ncnc3[nH]ccc23)cn1 [ruxolitinib] + CO[C@H]1C[C@@H]2CC[C@@H](C)[C@@](O)(O2)C(=O)C(=O)N2CCCC[C@H]2C(=O)O[C@H]([C@H](C)C[C@@H]2CC[C@@H](OCCO)[C@H](OC)C2)CC(=O)[C@H](C)/C=C(\C)[C@@H](O)[C@@H](OC)C(=O)[C@H](C)C[C@H](C)/C=C/C=C/C=C/1C [everolimus] (first compound 1 µM, partner dose 0.02 µM)	91.8
